The values below come from the RNAGym collection of RNA variant scans (doi:10.1101/gad.245936.114).

Variants at the floor of the assay are shown more often than the library holds them.

B1: tRNA (parent)
chain: CUCUCGGUAGCCAAGUUGGUUUAAGGCGCAAGACUUUAAUUUAUCACUACGAAAUCUUGAGAUCGGGCGUUCGACUCGCCCCCGGGAGAUUUUUUCCUCGAGCAA

In this series the parent is B1. Put plainly: nonsense suppression (GFP-seq) (ratio to wild type); higher = more function; SUP4oc tRNA, yeast GFP reporter sort-seq. The procedure, abridged: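 Yeast were grown in raffinose/galactose medium with 80 mg/L adenine, each strain bearing a genome-integrated ochre-suppressor tRNA variant from a ~3% random-mutation library, a galactose-driven GFP ochre reporter, and RFP. After sorting into GFP/RFP bins, every bin was sequenced on an Illumina platform at phred ≥30. The GFPSEQ value, a measure of nonsense suppression, is the weighted bin median GFP/RFP relative to the unmutated parent tRNA, using each variant's estimated cell share per bin as the weight. Only variants with ≥100 reads and ≥30 cells were included.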
As for CUCUCGGUAGCCAUGUUGGUCUACGUCGCAAGACUUUAAUUUAUCACUACGAAUUCUUGAGAUCGGGCGUUCGACUCGCCCCCGGGAGAUUUUUUCCUCGAGCAA [A14U U21C A24C G26U A54U], the nonsense suppression is ≤ 0.026.
Then CUCUUGGUAGCCUAGUUGGUUUAAGGCGCAAGACUUUAAUUUAUCACUACGAAAUCCUGAGAUCGGGCGUUUGACUCGCCCCCGGGAGAUUUUUUCCUCGAGCAA [C5U A13U U57C C72U], with ≤ 0.026; and CACUCGGUAGCCAAGUUGGUUUAAGGCGCAAGACUUUAAUUUAUCACUACGAAAUCUUGAGAUCGGGCGUUCGACACGCCCCCGGGAGAUUUUUUCCUCGAGCAA [U2A U76A], with ≤ 0.026; and CUCUCGGUAGCCAAGUUGCUUUAAGGCGUAAGACUUUAAUUUAUCACUACGAAAUCUUGAGAUCGGGCGUUCGACUCGCCCCCGGUAGAUUUUUUCCUCGAGCAA [G19C C29U G86U], with ≤ 0.026.
Turning to CUCUCGGUAGCCAAGUUGCUUUAAGGGGCAAGACUUUAAUUUAUCACUACGAAAUCUUGAGAUCGGGCGUUUGCCUCGCCCCCGGGAGAUUUUUUCCUCGAGCAA [G19C C27G C72U A74C], the nonsense suppression was ≤ 0.026.
The figure for CUCUCAGUAGCCAACUUGGUUUAAGGCGCAAGACUUUAAUUUAUCACUACGAAAUCUUGAGAUCGGGCGUUCGACUCGCCCCCGGGAGGUUUUUUCCUCGAGCAA [G6A G15C A89G] is ≤ 0.026; for CUCUCGGUAGCCAAGUUGGUUUAACGCGCAAGACUUUAAUUUAUCACUACGAAAUCUUGAGAUCGGGCGUUCGUCUCGCCCCCGGGAGAUUUUUUCCUCGAGCAA [G25C A74U] it is ≤ 0.026; for CUCUCGGUACCCAAUUUGGUUUAAGGUGCAAGACUUUAAUUUAUCACUACGAAAUCUUGAGAUCGUGCGGGCGACUCGCCCCCGGGAGAUUUUUUCCUCGAGCAA [G10C G15U C27U G66U U70G U71G] it is ≤ 0.026.
Then CUCUCGCUAGCCAAGUUGGUUUAAGCAGCAAGACUUUAAUUUAUCACUACGAAAUCUUGAGAUCGGGCGUUCGACUCGCCCCCGGGAGAUUUUUUCCUCGAGCAA [G7C G26C C27A], with ≤ 0.026; and CCCUCGGUAGCCAAGUUGGUUUAAGGCGCAAGACUUUAAUUUAUCACUACGAAAUCUUAAGAUCGGGCGUUCGACUCGCCCACGGGAGAUUUUUUCCUCGAGCAA [U2C G59A C82A], with ≤ 0.026.
The figure for CUCUCGGUCGCCAAGUUGGUUUAAGGCGCAAGACUUUAAUUUAUCACUACGAAAUCUUGACAUCGGGAGUUCGACUCGCCCCCGGGAUAUUUUUUCCUCGAGCAA [A9C G61C C68A G88U] is ≤ 0.026; for CUCUCGGUAGCCAGGUUGGUUUAAGGCGCAAGACUUUAAUUUAUCACUACGAAAUCUUGAGAUCGGGCGUUCGACUCGACCCCGGGAGAUUUUUUCCUCGAGCAA [A14G C79A] it is ≤ 0.026.
Take CUCUCGGAAGCCAAGUUGGUUUAAGGCGCAAGAGUUUAAUUUAUCACUACGAAAUCUUGCGAUCGGGCGUUCGACUCGCCCCCGGGAGAUUUUUUCCUCGAGCAA [U8A C34G A60C]: the nonsense suppression is ≤ 0.026.
The figure for CUCUCGGUAGCCAAGUUGGUUUAAAGCGCAAGAGUUUAAUUUAUCACUACGAAAUCUUGAGAUCGGGCGUUCGACUCGCCCCCGGGAGAUUUUUUCCUCGAGCAA [G25A C34G] is ≤ 0.026.
The figure for CUCUCGGUAGCCAAAUUGGUUUAAGGCGCAAGACUUUAAUUUAUCACUACGAAAUCUUGCGAUCGAGCGUUCGACUCGCCCCCGGGAUAUUUUUUCCUCGAGCAA [G15A A60C G66A G88U] is ≤ 0.026; for CUCUCGGUAGCAAAGUUGGUUUAAGGCGCAAGACUUUAAUUUAUCACUACGAAAUCUUGAGAUCGGGCGUUCGACUGGCCCCCGGCAGAUUUUUUCCUCGAGCAA [C12A C77G G86C] it is ≤ 0.026; for CUCUCGGUAGCCAAGUUUGUUUAAGGCGCAAGUCGUUAAUUUAUCACUACGAAAUCUUGAGAUCGGGCGUUCGACUCGCCCCCGGGAGAUUUUUUCCUCGAGCAA [G18U A33U U35G] it is ≤ 0.026.
The figure for CUCUCGGUAUCCAAGUUGGUUUAAGGCGCAAGACUUUAAUUUAUCACUACGAAAUCUUGAGAUCGGGCGUUCGACUCGCCACCGGGAGAUUUUUUCCUCGAGCAA [G10U C81A] is ≤ 0.026.
CUCUCGGUAGCCAAGUUGGUUUAAGGCGCAAGACUUUAAUUUAUCACUACGAAAUCUUUAGAUCGGGCGUUCGACUCGCCCACGGGAGAUUUUUUCCUCGAGCAA [G59U C82A]: the nonsense suppression is ≤ 0.026.
Then CUCACGGUAGCCAAGUUGGUUAAAGGCGCAAGACUUUAAUUUAUCACUACGAAAUCUUAAGAUCGGGCGUUCGACUCGCCCCCGGGAGAUUUUUUCCUCGAGCAA [U4A U22A G59A], with ≤ 0.026; and UUCUCGGUGGCCAAGUUGGUUUAAGGCGCAAGACUUUAAUUUAUCACUACGAAAUCUUGAGAUCGGGCGUUCGACUCGCCCCCGGGAGAUUUUUUCCUCGAGCAA [C1U A9G], with 0.0262; and CUCUCGGUAGCGAAGUUGGCUUAAGGCGCAAGACUUUAAUUUAUCACUACGAAAUCUUGAGAUCGGGCGUUCGACUCGCCCCCGGGAGAUUUUUUCCUCGAGCAA [C12G U20C], with ≤ 0.026.
With CUCUCGGUAGCUAAGUUGGUUUAAGGCGCAAGACUUUAAUUUAUCACUACGAAAUCUAGAGAUCGGGCGUUCGCCUCCCCCCCGGGAGAUUUUUUCCUCGAGCAA [C12U U58A A74C G78C], the nonsense suppression was ≤ 0.026.
Then CUCUCGGUAGCCAAGUUGGUUUAAGGCGCAAGACUUUAAUUUAUCACUACGAAAUCUUGAGAUCGGGGGUUCGACUCGCCCCCGGGACAUUUUUUCCUCGAGCAA [C68G G88C], with ≤ 0.026; and CUCUGGCUAGCCUUGUUGGUUUAAGGCACAAGACUUUAAUUUAUCACUACGAAAUCGUGAGAUCGCGCGUUCGACUCGCCCCCGGGAGAUUUUUUCCUCGAGCAA [C5G G7C A13U A14U G28A U57G G66C], with ≤ 0.026.
Then CUCUCGGUAAACAAGUUGGUUUAAGGCGCUAGACUUUAAUUUAUCACUACGAAAUGUUGAGAUCGGGCGUUCGACUCGCCCCCGGGAGAUUUUUUCCUCGAGCAA [G10A C11A A30U C56G], with ≤ 0.026; and CUCUCGGUAGCCACGUUGGUUUAAGUCGCAAGCCUUUAAUUUAUCACUACGAAAUCUGGAGAUCGGGCGUUCGACUCGCCCCCGGGAGAUUUUUUCCUCGAGCAA [A14C G26U A33C U58G], with ≤ 0.026.
